In publication PMC13263796:
Results are given in words; binding and its absence hold for the method and conditions named. Binding seen in cells or lysates may run through a third protein. Tags and fused reporters may be left off the sequences shown.

Target: T1, Atg9-PA (S. cerevisiae) (UniProt Q12142)
T1 sequence: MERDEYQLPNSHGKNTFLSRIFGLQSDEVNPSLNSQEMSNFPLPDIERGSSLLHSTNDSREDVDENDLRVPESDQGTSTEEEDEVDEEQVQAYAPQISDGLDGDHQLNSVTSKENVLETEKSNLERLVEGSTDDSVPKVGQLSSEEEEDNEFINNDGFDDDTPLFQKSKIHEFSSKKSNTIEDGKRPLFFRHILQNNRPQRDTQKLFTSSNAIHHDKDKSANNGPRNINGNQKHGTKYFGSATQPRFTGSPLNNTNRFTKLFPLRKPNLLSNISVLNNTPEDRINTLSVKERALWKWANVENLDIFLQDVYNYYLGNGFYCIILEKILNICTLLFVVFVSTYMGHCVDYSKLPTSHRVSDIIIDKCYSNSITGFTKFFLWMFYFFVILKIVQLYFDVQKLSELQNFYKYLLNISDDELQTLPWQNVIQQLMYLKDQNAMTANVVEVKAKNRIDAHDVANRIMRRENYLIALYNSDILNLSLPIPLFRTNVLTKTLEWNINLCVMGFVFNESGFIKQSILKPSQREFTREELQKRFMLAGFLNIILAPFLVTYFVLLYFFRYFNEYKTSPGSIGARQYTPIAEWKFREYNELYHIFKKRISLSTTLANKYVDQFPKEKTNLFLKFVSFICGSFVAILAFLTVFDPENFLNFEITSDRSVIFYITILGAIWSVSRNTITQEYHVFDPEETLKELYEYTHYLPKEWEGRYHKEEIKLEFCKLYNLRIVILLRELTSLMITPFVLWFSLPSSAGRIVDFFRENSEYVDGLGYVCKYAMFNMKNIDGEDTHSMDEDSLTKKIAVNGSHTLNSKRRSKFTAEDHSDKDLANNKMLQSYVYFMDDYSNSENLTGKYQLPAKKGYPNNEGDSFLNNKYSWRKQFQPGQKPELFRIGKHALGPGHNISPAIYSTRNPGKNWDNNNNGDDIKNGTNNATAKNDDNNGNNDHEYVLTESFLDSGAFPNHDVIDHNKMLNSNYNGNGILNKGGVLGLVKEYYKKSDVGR
Assay: co-IP; overexpressed GFP-Atg11 co-precipitated by overexpressed Atg9-PA from yeast in growing conditions (SMD -ura -trp, log phase); washes at 4°C; blots probed with anti-GFP

B1: GFP-atg11ΔCC2 (protein, UniProt Q12527)
chain: MADADEYSTAPTQQEITPLQTTATIINAISGECITTNVDFFVSLDKFKQFIARKWKIPPDQLLILLPYGNKLKPSMFKELLINRSFTLNDFYVYDRRLFSLVSKPTPTNLLTSKDSNPMNSPNSNDLTETLEYLIKNSHISQYQGSDTIMIKPMPSPLEDADVDLSRLNYHSVTSLLTTNLGWLSALEIDVHYFKSLIPDIIAHIKRIFDGLTVCSQYLKLYCFDVESLYNSNVQFLNQLVDNGMTSKWEKCFNDTLSKLTALEGDSLQKFINIESLLENEKSVKILNHSINGKLNKIKREIDENASFRDIITVNIDRLRQMFTPNESKFELEDQMAESFEVLVSEMRTRSRNVLDKEEEEFNSQEFLKSMNVMLEKDKKESVKTLFTISQALYSQIGELIDLKKSLQKHAVAILGNIAFTQMEILGIKRLLLNECNKDLELYKKYEVEFAQVEDLPLIYGLYLIEKYRRLSWFQQILSFISNFNQDLELFKQNELRTRNKWVKNFGSIATVFCEDLLSSSDFKRLNEYHSHTSPPIIDLLSKTLFETKRFHIIYSNFKNNNNNSSNGNSISPEGSIALKSDDVVKGYKTRIKKLESLLHEFQYSDIGHWPQGVLNTHLKPFRGSATSINKKKFLGASVLLEPANISEVNIDSVSQANNHQIQELESNVDDLLHQLQLLKEENNRKSMQISEMGKKISDLEVEKTAYRETLTNLNQELARLTNEEQSHRTEIFTLNASFKKQLNDIISQDNEKIEKLTGDYDDVSKSRERLQMDLDESNKKHEQEVNLLKADIERLGKQIVTSEKSYAETNSSSMEKGEKFETIPLAEDPGRENQISAYTQTLQDRIFDIISTNIFILENIGLLLTFDNNNNIQIRRVKGLKKGTAQSNILDESTQMLDAHDNSLIKSPVFQKLKDEYELIKSVANGSEKDTQQSIFLGNITQLYDNKLYEVAVIRRFKDIETLAKKLTKENKIKRTLLERFQREKVTLRNFQIGDLALFLPTRENVNSVGSMSSSTSSLSSSFSSVDLSTPPPLDAMSIQSSPSVIHSNVINQASISGRDKNKLMRPWAAFTAFEESTRYFLKDEKGLTKGKEWFVGRIVTLEHFVADSPSNNPFRLPKGSVWFQVTAVVVSYQGV
B1 was tested, and the binding was “no binding”.
